# Measured values reported in article PMC4336329 (PLoS ONE, 2015).
# Screen size: about 310,000 compounds; about 14,000 (4.5%) showed an effect of 50% or more. Effects have a minus sign here. The list shows a part of the results.
# Target: human ether-à-go-go-related gene (hERG) potassium channel (human, UniProt Q12809)
# Test: primary screen, population patch clamp on CHO cells stably expressing hERG
# 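Note: peak tail current of the secondary pulse compared with the same well before compound.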
# Sequence of human ether-à-go-go-related gene (hERG) potassium channel (Q12809 whole entry, looked up): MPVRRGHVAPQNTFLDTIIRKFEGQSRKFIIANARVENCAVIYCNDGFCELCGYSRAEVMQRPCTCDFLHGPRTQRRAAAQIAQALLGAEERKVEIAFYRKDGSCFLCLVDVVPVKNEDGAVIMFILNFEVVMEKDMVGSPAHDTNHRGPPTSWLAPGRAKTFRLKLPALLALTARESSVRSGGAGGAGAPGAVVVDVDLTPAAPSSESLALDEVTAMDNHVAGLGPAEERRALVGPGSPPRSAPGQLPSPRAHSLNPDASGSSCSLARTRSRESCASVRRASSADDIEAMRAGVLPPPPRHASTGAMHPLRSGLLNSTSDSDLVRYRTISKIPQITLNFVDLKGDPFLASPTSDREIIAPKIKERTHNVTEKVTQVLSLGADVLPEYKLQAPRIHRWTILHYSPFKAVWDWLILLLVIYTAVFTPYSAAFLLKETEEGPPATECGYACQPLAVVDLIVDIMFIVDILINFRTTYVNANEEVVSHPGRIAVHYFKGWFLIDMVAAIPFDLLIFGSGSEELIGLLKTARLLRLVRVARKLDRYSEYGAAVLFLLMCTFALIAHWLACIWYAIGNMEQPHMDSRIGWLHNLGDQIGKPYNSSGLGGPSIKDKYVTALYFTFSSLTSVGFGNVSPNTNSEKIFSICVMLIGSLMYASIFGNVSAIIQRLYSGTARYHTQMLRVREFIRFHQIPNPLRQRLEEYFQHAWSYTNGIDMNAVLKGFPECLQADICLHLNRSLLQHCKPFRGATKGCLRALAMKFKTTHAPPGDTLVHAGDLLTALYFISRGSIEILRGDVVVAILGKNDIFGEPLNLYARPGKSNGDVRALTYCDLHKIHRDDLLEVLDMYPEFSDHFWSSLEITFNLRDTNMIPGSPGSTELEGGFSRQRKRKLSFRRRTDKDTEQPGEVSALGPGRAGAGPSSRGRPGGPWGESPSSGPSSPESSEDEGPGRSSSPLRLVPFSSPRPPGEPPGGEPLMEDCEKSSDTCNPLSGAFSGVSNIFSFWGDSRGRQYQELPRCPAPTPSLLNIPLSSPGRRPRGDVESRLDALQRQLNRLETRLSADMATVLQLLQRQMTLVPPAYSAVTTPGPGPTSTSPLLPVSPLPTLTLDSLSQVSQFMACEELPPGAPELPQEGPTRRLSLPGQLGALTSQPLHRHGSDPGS
row,SMILES,"hERG current change (%, negative = inhibition) at 10uM"
1,COc1ccccc1/C=C/C(=O)Nc1cccc(S(=O)(=O)N2CCOCC2)c1,-16.1%
2,COc1ccc(N2CC(C(=O)N3CCCC(C)C3)CC2=O)cc1 (stereo not shown),-8.61%
3,O=C(Cn1c2ccc(F)cc2c2nc3n(c(=O)c21)CCS3)Nc1ccccc1F,10.3%
4,CCCCCN1N=C(C)CC1=O,3.59%
5,Cc1nn(C(C)C(=O)Nc2sc3c(c2C#N)CCCC3)c(C)c1[N+](=O)[O-] (stereo not shown),12.1%
6,COc1ccccc1-c1cc(C(=O)NN)[nH]n1,8.53%
7,O=c1c2c3nc4ccccc4nc3n(/N=C/c3ccccn3)c2ncn1-c1ccccc1,19.8%
8,CN=C1SC(C(=O)Nc2ccccc2Cl)CC(=O)N1c1ccc(OC(F)(F)Cl)cc1 (stereo not shown),20.8%
9,CC(=O)Nc1ccc(S(=O)(=O)NCCC(=O)NCCOc2ccccc2)cc1,-5.6%
10,Cc1ccc(CNC(=O)C(N=C2NS(=O)(=O)c3ccccc32)C(C)C)cc1 (stereo not shown),5.17%
11,COc1cnc(-c2cccc(C(F)(F)F)c2)[nH]c1=O,9.36%
12,O=C(CNC(=O)c1cccs1)NCC(=O)OCc1ccc(F)cc1,-13.1%
13,O=C(NCCC1=CCCCC1)C1CCN(C(=O)Nc2ccccc2)CC1,7.6%
14,Cc1ccc(/C=C/C(=O)c2c(C)cc(C)[nH]c2=O)cc1,-5.74%
15,Cc1ccc2c(c1)c1ncnc(N3CCOCC3)c1n2C,-18.5%
16,Cc1ccc(CCNC(=O)CCS(=O)(=O)Cc2ccc(C)cc2)cc1,-0.289%
17,COc1cc(C(=S)N2CCOCC2)ccc1OC(=O)c1ccccc1C,5.33%
18,CCc1ccccc1S(=O)(=O)Cc1ccc(C(=O)N2CCN(c3ccccn3)CC2)o1,-45.5%
19,COc1cc2c(C(=O)OCCN(C)C)c(CSc3ccccc3)n(C)c2cc1Br,5.67%
20,CC(C)c1nnc(NC(=O)c2cccc(NC(=O)C(F)(F)F)c2)s1,-2.44%
21,Cc1c(OC(C)C(=O)NCCCN2CCOCC2)ccc2c1oc(=O)c1ccccc12 (stereo not shown),6.19%
22,CCn1ccc(C(=O)Nc2sc3c(c2C(=O)OC)CCC3)n1,16%

row,SMILES,"hERG current change (%, negative = inhibition) at 10uM"
1,O=C(Nc1ccccc1N1CCN(C(=O)c2ccccc2)CC1)c1cc(Br)ccc1Cl,-55.6%
2,CCOc1ccc(C(=S)NC2CCCCC2)cc1,-18%
3,COc1cc(-c2noc(-c3cccc(Cl)c3)n2)cc(OC)c1OC,-1.63%
4,C/C(=N\NC(=O)C1(C)CC1(Br)Br)c1ccc([N+](=O)[O-])cc1 (stereo not shown),11%
5,CC(C)Cc1nc2ccc(N)cc2[nH]1.Cl,-3.89%
6,CC(=O)Nc1ccc(OCC(O)Cn2c(C)nc3ccccc32)cc1 (stereo not shown),3.96%
7,CCn1c(Cc2ccccc2)nnc1SCc1ccc([N+](=O)[O-])cc1,-57.1%
8,CCOC(=O)c1ccc(NC(=S)N(Cc2cccnc2)Cc2ccco2)cc1,-53.2%
9,CCOc1ccc(NC(=S)NCCN2CCN(Cc3ccccc3)CC2)cc1,-62.3%
10,FC(F)(F)c1ccc(CN2C[C@@H]3C(c4ccc(C(F)(F)F)cc4)C4(c5cccnc5)CC3(C4)[C@H]2c2ccccc2)cc1 (stereo partly shown),13.6%
11,Cc1ccc(N=Cc2c(O)[nH]c3ccccc23)c([N+](=O)[O-])c1,12%
12,Cc1cc(NC(=O)Cc2ccc(Br)cc2)no1,23.2%
13,O=C(CSc1nnc2ccccn12)Nc1ccccc1C(=O)NC1CC1,7.09%
14,O=C(O)Cc1csc(-c2cccc(Oc3ccccc3)c2)n1,-1.94%
15,O=C(N/N=C/c1ccncc1)c1cc2c(ccc3ccccc32)o1,21.9%
16,O=C(NCCOC(=O)c1ccc(Cl)c(S(=O)(=O)N2CCCCC2)c1)c1ccncc1,-30.4%
17,CCN1CCN(C(=S)Nc2cccc([N+](=O)[O-])c2)CC1,-13%
18,O=C(NC(=S)Nc1ccc(C(F)(F)F)cc1)c1csnn1,6.76%
19,COc1ccccc1C(=O)NC(=O)COC(=O)c1cccc(NC(C)=O)c1,-2.4%
20,CCOc1ccccc1N1C(=O)CN(Cc2ccc(OC)c(OC)c2)C1=S,24.9%
21,O=C(NC(=S)NCc1ccco1)c1ccccc1,-6.72%
22,COc1ccc(-c2nc3ncccc3o2)cc1NC(=O)c1cccs1,-7.85%

row,SMILES,"hERG current change (%, negative = inhibition) at 10uM"
1,Br.COc1ccc(Nc2nc(-c3sc(C)nc3C)cs2)cc1,-17.5%
2,CC1Cc2ccccc2N1C(=O)CN(C)S(=O)(=O)c1cccc2cccnc12 (stereo not shown),-18.1%
3,COc1ccc(CNC(=O)CCS(=O)(=O)c2ccc(Br)cc2)cc1,7.33%
4,O=C(NCCc1ccccc1)c1cc(S(=O)(=O)N2CCCC2)ccc1F,-14.6%
5,O=c1[nH]c2cc3c(cc2cc1CN(Cc1cccnc1)C(=S)NCc1ccco1)OCCO3,-5.62%
6,COc1ccc(Cn2nnnc2CN2CCN(c3ccc(OC)cc3)CC2)cc1,-3.66%
7,O=C1CCC2S/C(=C/Nc3ccc(C(F)(F)F)cc3)C(=O)N12 (stereo not shown),-52.2%
8,CC1(C)CC(=O)c2c(-c3cccs3)n[nH]c2C1,-24.9%
9,COc1ccc(S(=O)(=O)N2Cc3ccccc3CC2C(=O)Nc2nccs2)cc1OC (stereo not shown),-4.54%
10,Cc1cccc(N2CCN(C(=O)CCCOc3ccccc3)CC2)c1C,-15.4%
11,C=CCNC(=O)N1C2=NC(C(=O)OC)=C(C(=O)OC)[C@@H]3N(Cc4ccccc4)c4ccccc4[C@]23C[C@H]1C(=O)OC,15.3%
12,CCCCNC(=O)c1ccc(/C=C2\Oc3ccccc3N(C)C2=O)cc1,-20.4%
13,CCOC(=O)N1CCc2c(sc(NC(=O)CN3CCN(C)CC3)c2C(=O)Nc2ccccc2)C1,-77.2%
14,CCC(=O)N1CCc2cc(S(=O)(=O)NCCC(=O)NC3CCCCCC3)ccc21,-13.6%
15,C=CCN1C(=O)C(CC(=O)O)SC1=Nc1ccc(N=Nc2ccccc2)cc1.N (stereo not shown),15.9%
16,O=C(NC1CCCN(c2ccc(C(F)(F)F)cn2)C1)c1cc(Cl)ccc1F (stereo not shown),5.34%
17,Cc1cc(NC(CC(C)C)C(=O)O)nc(Cc2ccccc2)n1 (stereo not shown),9.96%
18,Cc1cc(C(=O)CSc2nnc(N)s2)c(C)n1Cc1cccs1,2.28%
19,COc1ccc(CCNC(=O)C2=COCCO2)cc1,18.8%
20,N#CC[C@H](Cc1ccccc1)N1CC[C@@H](O)CCC1=O,-4.92%
21,COc1ccc(OCCSc2nc(C)nc3ccccc23)cc1,34.5%
22,Fc1ccc(COc2ccc(C(=S)N3CCCC3)cc2)cc1,0.242%

row,SMILES,"hERG current change (%, negative = inhibition) at 10uM"
1,COc1ccc(CN2C(=O)/C(=C/c3ccncc3)SC2=S)cc1,0.108%
2,Cc1nn(C)cc1CN(C)C(=O)CCc1nnc(CCC2CCCCC2)o1,-2.64%
3,CC(=O)NCCNC(=O)[C@H](Cc1ccccc1)NC(=O)c1cccs1,2.74%
4,CCOc1ccccc1N1CCN(C(=O)c2c(-c3ccccc3Cl)noc2C)CC1,2.42%
5,COC(=O)C1=C(C)N(CCc2ccccc2)C(=O)C1(NS(=O)(=O)c1ccc(NC(C)=O)cc1)C(F)(F)F (stereo not shown),-11.3%
6,CN1CCN(c2ccccc2NC(=O)c2cc(Br)ccc2Cl)CC1,-76.4%
7,COCCNC(=O)c1onc(CSc2ccncc2)c1C(=O)NCCOC,17.7%
8,Cc1ccc(/C(O)=C2\C(=O)C(=O)N(c3cc(C)on3)C2c2cccc(Br)c2)cc1 (stereo not shown),11%
9,COc1ccc(C2C(C(=O)N3CCOCC3)CCC(=O)N2c2ccc(OC)cc2)cc1 (stereo not shown),21.1%
10,CCOCc1nnc(NC(=O)CSCc2ccccc2)s1,-1.7%
11,Cn1c(=O)c2c(nc(N3CCCC3)n2C)n(C)c1=O,10%
12,COc1cccc(C2C(C#N)=C(N)OC(C(C)(C)C)=C2C#N)c1 (stereo not shown),-19.2%
13,CCCCCCN=Cc1c(O)n(C)c(=O)n(C)c1=O,-7.16%
14,COc1cc(/C=N/N2CCN(c3ccccc3)CC2)ccc1OC(C)=O,-5.1%
15,C=CCOc1ccc(/C=N/N2C(=O)C(CC(=O)Nc3ccc(F)cc3F)SC2=NC)cc1 (stereo not shown),7.61%
16,COc1cccc2c1OCC(C(=O)OCc1cccnc1)=C2,-17.4%
17,CC1=CC(=O)NP(=O)(Oc2ccc3ccccc3c2)N1 (stereo not shown),4.73%
18,CC1CCN(S(=O)(=O)c2ccc3c(c2)N(CC(=O)NCCCN(Cc2ccccc2)C(C)C)C(=O)CO3)CC1,-62.5%
19,O=C(c1cc(S(=O)(=O)N2CCOCC2)ccc1F)N1CCN(Cc2ccccc2)CC1,-17.1%
20,COC(=O)C1=C(C)N=C2SC(C#N)=C(N)N2C1c1cccc(OC)c1 (stereo not shown),-7.86%
21,Cc1ccc(CN2CCNC(=O)C2CC(=O)NC2CCCCCC2)cc1 (stereo not shown),-16.4%
22,O=C(COC(=O)c1cc(Cl)ccc1O)NCCNC(=O)COC(=O)c1cc(Cl)ccc1O,21.4%
